Test results: PubChem BioAssay AID1240 (Sanford-Burnham Center for Chemical Genomics, 2008)
Out of some 50,000 compounds screened, about 800 (1.6%) showed an effect of 50% or more. This is one part of the list.

The compounds below were run against Bcl-2-like protein 10 (Homo sapiens) (UniProt Q9HD36) (assay: Phenotype converters, Bcl-B/TR3 peptide binding displacement, primary biochemical FP (AID 1240;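 also: 0% = Bcl-B with tracer peptide and DMSO and 100% = tracer peptide lacking Bcl-B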)). Conditions: GST-Bcl-B / FITC-TR3 peptide fluorescence polarization; stronger effect = higher value; compound at 3.75 mg/L.
UniProt Q9HD36, sequence (Q9HD36 whole entry, looked up): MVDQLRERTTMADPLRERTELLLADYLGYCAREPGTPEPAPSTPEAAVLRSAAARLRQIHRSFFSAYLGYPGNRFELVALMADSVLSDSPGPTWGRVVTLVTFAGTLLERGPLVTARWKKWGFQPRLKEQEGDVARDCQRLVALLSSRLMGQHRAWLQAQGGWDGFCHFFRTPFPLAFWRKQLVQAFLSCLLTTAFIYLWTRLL

| Structure (SMILES) | displacement [%] |
| --- | --- |
| NC(N)=N/N=C/c1ccccc1OCc1ccc(Cl)cc1 | 15 |
| CCOC(=O)c1ccc(NC(=O)CN(c2cc(C)cc(C)c2)S(=O)(=O)c2ccccc2)cc1 | 4.7 |
| CCOC(=O)C(=CNc1cc(Cl)c(-c2ccco2)c(Cl)c1)C(=O)OCC | 15.7 |
| O=C1C2C(C(=O)N1/N=C/c1ccco1)C1C=CC2C12CC2 (stereo not given) | 4.5 |
| CCOC(=O)CCc1c(C)nc2cc(-c3ccc(Br)cc3)[nH]n2c1=O | 9.9 |
| CC1=C(C)CC2C(=O)N(c3ccc(Cl)cc3Cl)C(=O)C2C1 (stereo not given) | -8.5 |
| O=C1NN(c2ccc(Cl)c(Cl)c2)C(=O)/C1=C/c1cccn1-c1ccc([N+](=O)[O-])cc1 | 1.7 |
| O=[N+]([O-])c1ccc(NC(=S)Nc2ccc(F)cc2)c(O)c1 | 2.1 |
| COc1ccc(C(C)=O)c(OC(C)=O)c1 | -9.9 |
| COc1ccc(OC)c(NC(=O)c2ccccc2C)c1 | 2.8 |
| CCCCOC(=O)C1=C(C)NC2=C(C(=O)CC(c3ccccc3)C2)C1c1ccco1 (stereo not given) | -19.4 |
| Cc1[nH]c2ccc(Br)cc2c(=O)c1CC=C(Cl)Cl | -6.6 |
| CCOC(=O)CSc1nc(N)c(C#N)c(-c2ccc(O)cc2)c1C#N | 4 |
| Cc1ccc(N2C(=O)CC(NCc3ccc(Cl)cc3Cl)C2=O)cc1 (stereo not given) | 8.1 |
| CC(C)c1ccccc1NS(=O)(=O)c1ccc([N+](=O)[O-])cc1 | 3.1 |
| COc1ccc(NS(=O)(=O)c2cc(C)ccc2C)cc1 | 2 |
| O=c1nc(-c2ccccc2)c2cc(OC(F)(F)F)ccc2[nH]1 | 10.2 |
| CCCOc1ccc(-c2cn3ccccc3n2)cc1 | -16.5 |
| CC(=O)Nc1ccc(/C=C(/C#N)C(=O)N/N=C/c2ccc(NC(C)=O)cc2)cc1 | 110 |
| O=C(Nc1ccncc1)c1cccc(F)c1 | -3 |
| N/C(Cc1ccc([N+](=O)[O-])cc1)=N\OC(=O)C(c1ccccc1)c1ccccc1 | -34.1 |
| CC12CC3CC(C)(C1)CC(C(=O)Nc1cc(Cl)ccc1Cl)(C3)C2 | 1.3 |

| Structure (SMILES) | displacement [%] |
| --- | --- |
| CC(=O)Nc1ccccc1NS(=O)(=O)c1ccccc1[N+](=O)[O-] | -7.2 |
| COc1cc(OC)cc(C(=O)Nc2ccc(-c3nc4cc(C)cc(C)c4o3)cc2)c1 | 55.3 |
| CC(=O)c1sc(NC(=O)c2cccc([N+](=O)[O-])c2)nc1C | 7.9 |
| O=C(c1ccccc1)C1(C(=O)c2ccccc2)CCCC1 | -9.8 |
| C=CCOC(=O)C1=C(C)NC(C)=C(C(=O)OCC=C)C1c1ccccc1F | 7.8 |
| Cc1ccc(F)c(NC(=O)C2CC(=O)N(c3ccc(Cl)cc3)C2)c1 (stereo not given) | 7.7 |
| COc1ccc(CN2C(=O)NC(=O)/C(=C\C=C\c3ccco3)C2=O)cc1 | 33.4 |
| COc1ccc(N2C(=O)c3cccc4cccc(c34)C2=O)cc1OC | 43.6 |
| CC(C)CNC(=O)c1cccc(NC(=O)Cc2ccc(Cl)cc2)c1 | 8 |
| Cc1cc(OCC(=O)Nc2cccnc2)cc(C)c1Cl | -1.1 |
| O=C(/C=C/c1ccco1)N1CCN(c2cccc(Cl)c2)CC1 | -19.5 |
| O=C(Nc1ccc(S(=O)(=O)Nc2ncccn2)cc1)c1cccs1 | 10.5 |
| Cc1ccc(C(=O)Nc2c(C(=O)N3CCC(Cc4ccccc4)CC3)cnn2-c2ccccc2)cc1 | -8.3 |
| O=C(/C=C/c1ccccc1)N1CCN(c2ccc(F)cc2)CC1 | -8.6 |
| COc1nccc(NCc2ccccc2)c1C#N | -12.3 |
| N/C(=N\OC(=O)COc1ccc2ccccc2c1)c1ccc([N+](=O)[O-])cc1 | 11 |
| O=C1c2cccc([N+](=O)[O-])c2C(=O)N1c1cccc(-c2nc3ccccc3c(=O)o2)c1 | 2 |
| CC(Oc1ccccc1)C(=O)Nc1ccccc1F (stereo not given) | 4.4 |
| NC(=O)C1CCN(C(=O)c2cccc(F)c2)CC1 | 14.3 |
| O=C(O)COc1ccc(/C=N/NC(=O)C(O)(c2ccccc2)c2ccccc2)cc1 | -8.8 |
| O=[N+]([O-])c1ccccc1S(=O)(=O)NCc1ccc(F)cc1 | -0.2 |
| C=CCNC(=O)/C(=C\c1ccc(Cl)cc1)NC(=O)c1ccco1 | -7.9 |

| Structure (SMILES) | displacement [%] |
| --- | --- |
| COc1ccc(C(=O)c2ccc(OC)c(N)c2)cc1N | 2.2 |
| CC1=C(C(=O)OCC(F)(F)F)C(c2cccc(Cl)c2)NC(=O)N1 (stereo not given) | 3.2 |
| N#CC1=C(N)Oc2c(ccc3cccnc23)C1c1ccc(Cl)cc1Cl (stereo not given) | 17.7 |
| O=C(c1ccccc1)c1coc2ccc(O)cc12 | 18.1 |
| O=C1C2C(C(=O)N1/N=C/c1ccccc1Cl)C1C=CC2C12CC2 (stereo not given) | 3.3 |
| C/C(=N\NC(=O)c1cc(Br)ccc1O)c1cccnc1 | 3.9 |
| Cc1nn(-c2ccccc2)c(N2CCCCC2)c1/C=N/Nc1ccc(C(F)(F)F)cn1 | 1.7 |
| CC(=O)Nc1ccc(C(=O)Nc2ccc(Cl)cc2Cl)cc1 | 8.3 |
| Cc1ccc(S(=O)(=O)N(C)CCCC(=O)Nc2cccc(C)c2C)cc1 | 10.1 |
| COc1ccc(NC(=O)Nc2nnc(CC(C)C)s2)cc1 | 5.7 |
| Cc1cc(C)nc(SC/C=C/CSc2nc(C)cc(C)n2)n1 | -1 |
| Cc1ccc(N2CC(C(=O)N/N=C/c3ccc4c(c3)OCO4)CC2=O)cc1 (stereo not given) | -7 |
| CCCC(=O)Nc1cccc(NC(=O)c2ccc(-c3ccc(Cl)cc3Cl)o2)c1 | 2.3 |
| CCOc1cc(C2C(C(=O)OC)=C(C)NC3=C2C(=O)CC(C)(C)C3)ccc1OC(=O)C1CC1 (stereo not given) | 3.3 |
| CCOc1ccc(C(=O)Nc2cc(C(F)(F)F)cc(C(F)(F)F)c2)cc1 | 2.1 |
| COc1ccccc1-n1c(SCc2ccccc2)nc2ccccc2c1=O | 9.9 |
| Cc1cc2nc3s/c(=C\c4ccc(N5CCOCC5)c([N+](=O)[O-])c4)c(=O)n3c2cc1C | 2.9 |
| O=c1[nH]c(=O)n(-c2ccc(Cl)cc2)c(O)c1C=Nc1cccc(F)c1 | 10 |
| Cc1ccc(/C=N/NC(=O)CSc2ncccn2)cc1 | -5 |
| Cc1ccccc1-c1ncnn1-c1cccc(Cl)c1C | -11.5 |
| Cc1ccccc1C(=O)NN=C1CCCC1 | 3 |
| Cc1cc(C)c2[nH]c(O)c(N=NC(N)=S)c2c1 | 24 |

| Structure (SMILES) | displacement [%] |
| --- | --- |
| CCOc1ccc(NC(=O)CCN2C(=O)S/C(=C\c3ccc(OC)c(OC)c3)C2=O)cc1 | 9.1 |
| O=C(NC(=S)Nc1ccc2oc(-c3ccc(Cl)cc3)nc2c1)c1ccccc1 | 9.1 |
| Cc1cccc(C)c1NC(=O)c1c(F)c(F)c(F)c(F)c1F | -8.9 |
| CCOc1ccc(C=C2C(=O)N(C)C(=O)N(C)C2=O)cc1Cl | 12.9 |
| Cc1onc(-c2ccccc2Cl)c1C(=O)N(Cc1ccccc1)C(C)C | 7.5 |
| CCc1ccccc1N(CC(=O)Nc1ccc(C)cc1)S(C)(=O)=O | 4 |
| Cc1cc(C)nc(SC(C)C(=O)N/N=C/c2ccc(Br)cc2)n1 (stereo not given) | -0.2 |
| CN(C)c1cccc(C(=O)NC(c2ccccc2)c2ccccc2)c1 | 0.7 |
| O=C(Nc1ccc([N+](=O)[O-])cc1Br)c1ccc(Br)o1 | 4.4 |
| CC1=NN(c2ccc(Oc3ccccc3)c(S(=O)(=O)O)c2)C(=O)C1 | 5 |
| C=CCNC(=O)CN(c1ccc(Cl)cc1)S(C)(=O)=O | 4.9 |
| C/C(=N/NC(=O)CNc1ccc(C)cc1)c1ccc(Br)s1 | -9.1 |
| N/C(=C\C(=O)c1ccccc1O)C(F)(F)F | 7.8 |
| CC1CCN(S(=O)(=O)c2cccc3ccccc23)CC1 | 4.5 |
| CCc1nnc(NS(=O)(=O)c2ccc(NC(=O)/C=C/c3cccc([N+](=O)[O-])c3)cc2)s1 | -10.1 |
| COc1ccc(NC(=O)c2ccccc2C(F)(F)F)c(OC)c1 | 1.9 |
| Cc1ccc(C(=O)NC(=S)NCCc2ccccc2)cc1 | 8.4 |
| CC(c1ccccc1)C1CC(=O)N(c2ccccc2)C1=O (stereo not given) | -6.6 |
| O=C(NC(=S)Nc1ccc2oc(-c3cccc(Br)c3)nc2c1)c1ccco1 | 13.6 |
| COc1ccc(-n2c(/C=C/c3c(C)n(C)c4ccc(OC)cc34)nc3ccccc3c2=O)cc1 | -7.8 |
| COc1cc(OC)cc(C(=O)Nc2ccccc2Br)c1 | 2.4 |
| Cc1cccc(C(=O)Nc2sc3c(c2C(=O)N(C)C)CCCCC3)c1 | -11.4 |

| Structure (SMILES) | displacement [%] |
| --- | --- |
| CCc1ccc(OCC(=O)Nc2ccccc2C(F)(F)F)cc1 | -11.5 |
| CCOc1ccccc1/C=C1/C(=O)NN(c2ccc(C)c(Cl)c2)C1=O | 17.8 |
| Cc1ccc2nc(/C(C#N)=C\c3ccc(Br)cc3)[nH]c2c1 | 136 |
| O=C(O)c1nn2c(C(F)(F)F)cc(-c3cccs3)nc2c1Cl | 3.1 |
| CC(C)(C)c1ccc(C(=O)NNC(=O)c2ccncc2)cc1 | -10.9 |
| CSc1nncn1/N=C/c1ccc([N+](=O)[O-])cc1 | -0.3 |
| OC(CN1CCN(Cc2ccccc2)CC1)Cn1c2ccccc2c2ccccc21 (stereo not given) | -5.9 |
| O=C1OC(c2ccc(NC(=O)C(F)(F)F)cc2)(c2ccc(NC(=O)C(F)(F)F)cc2)c2ccccc21 | 4.8 |
| O=C(O)/C=C/c1ccc(S(=O)(=O)NCc2cccnc2)cc1 | 8.8 |
| CCOC(=O)c1ccccc1NC(=O)c1cc(Cl)ccc1OC | 0.8 |
| O=C(NCCCNc1ccc([N+](=O)[O-])cc1)c1ccccc1F | -8.7 |
| CC(C)N(C(=O)CSc1nc2ccccc2s1)c1ccccc1 | 9.4 |
| O=C(COc1cccc(Cl)c1)Nc1ccc2c(c1)OCCO2 | 2.2 |
| N/C(=N\c1nc(C(F)(F)F)cc(=O)[nH]1)Nc1ccc(I)cc1 | -2.2 |
| COc1ccc(/C(C)=N/NC(=O)CCc2c(C)n[nH]c2C)cc1OC | -6 |
| O=C(Nc1ccc(-c2cnc(-c3ccc(NC(=O)c4ccccc4Cl)cc3)nc2)cc1)c1ccccc1Cl | 12.1 |
| Cc1cc(C)nc(NN2C(=O)/C(=C/c3cccc(Br)c3)SC2=S)n1 | -27.5 |
| COc1cccc(NC(=O)/C(=C/c2ccc(C)o2)NC(=O)c2ccccc2)c1 | 9.6 |
| COc1ccc(OCCNS(=O)(=O)c2ccccc2)cc1 | 5.7 |
| COc1cc(OC)c(OC)cc1C=NN1CCN(c2ccc(Cl)cc2)CC1 | -2 |
| O=C(NC(=S)Nc1c(Cl)cc(Cl)cc1Cl)c1ccco1 | 4.7 |
| C=CCN1C(=O)/C(=C\c2ccc(C(=O)OC)cc2)C(C(=O)OC)=C1C | -14.5 |
